Assay results taken from the supplement of paper PMC12217912.
Some of the results follow. Sequences were assembled here from the parent chain. Inactive controls read about 0.05.

B1: TEV protease; numbered along this chain (parent)
chain: MGESLFKGPRDYNPISSSICHLTNESDGHTTSLYGIGFGPFIITNKHLFRRNNGTLVVQSLHGVFKVKDTTTLQQHLVDGRDMIIIRMPKDFPPFPQKLKFREPQREERICLVTTNFQTKSMSSMVSDTSCTFPSGDGIFWKHWIQTKDGQCGSPLVSTRDGFIVGIHSASNFTNTNNYFTSVPKNFMELLTNQEAQQWVSGWRLNADSVLWGGHKVFMVKPEEPFQPVKEATQL

Variants of: B1
Test: raw area under fraction-flipped curve 0-4 h after induction (AUC4h, not background-subtracted), DNA-recorder readout of cleavage of the substrate (dimensionless); higher = more cleavage of the substrate by the protease variant
Settings: temperature: 34 °C; time window: 0-4 h after rhamnose induction
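Further: Bxb1 expression induced with 0.2% (w/v) L-rhamnose at OD600 near 0.5, cultures sampled hourly, flipped fraction per protease–substrate barcode pair counted by paired-end Illumina sequencing.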

Variant | area with substrate ENCYFQS | area with substrate ENFYFQS | area with substrate ENHYFQS | area with substrate ENIYFQS | area with substrate ENKYFQS | area with substrate ENPYFQS | area with substrate ENQYFQS | area with substrate ENSYFQS | area with substrate ENTYFQS | area with substrate ENDYFQS | area with substrate ENEYFQS | area with substrate ENMYFQS | area with substrate ENNYFQS | area with substrate ENRYFQS | area with substrate ENVYFQS | area with substrate ENYYFQS | area with substrate ENGYFQS | area with substrate ENWYFQS
Q146S | 0.0671 | 0.0651 | 0.0499 | 0.0956 | 0.0718 | 0.0513 | 0.0507 | 0.0611 | 0.0741 | – | – | – | – | – | – | – | – | –
T147A | 0.0674 | 0.0547 | 0.0741 | – | – | – | 0.0688 | 0.04 | 0.0624 | 0.0825 | 0.0767 | 0.0778 | 0.096 | 0.0499 | 0.0439 | 0.053 | – | –
T147K | 0.0606 | – | – | 0.0623 | – | 0.0667 | 0.0686 | 0.0693 | – | – | 0.0633 | 0.0568 | – | – | 0.0817 | – | – | –
K148H | 0.0615 | 0.0646 | 0.0447 | 0.0833 | – | – | 0.0664 | 0.0652 | 0.0387 | 0.0566 | 0.0624 | 0.077 | 0.0823 | – | 0.0599 | 0.0615 | 0.0257 | –
G150I | 0.0538 | 0.054 | 0.0615 | 0.0616 | 0.0663 | 0.0591 | 0.0606 | 0.0696 | 0.0635 | 0.0634 | 0.059 | – | 0.0607 | 0.0577 | 0.0668 | 0.0543 | 0.0515 | 0.0567
S158P | 0.0407 | 0.0419 | 0.0548 | 0.0614 | 0.0573 | 0.0372 | 0.0501 | – | 0.0407 | 0.0565 | 0.0474 | – | 0.0531 | – | – | – | 0.0809 | –
T159D | 0.049 | – | – | – | – | – | – | – | – | – | – | – | – | – | – | – | – | –
D161I | 0.0501 | 0.0501 | 0.0469 | 0.0369 | 0.0531 | 0.0446 | 0.0565 | 0.0235 | 0.0534 | 0.0558 | 0.0486 | – | – | 0.0436 | – | – | 0.0892 | –
V165W | 0.0276 | – | 0.0495 | 0.0695 | – | 0.0661 | 0.0537 | – | 0.0601 | 0.0623 | 0.0542 | – | 0.0395 | 0.0498 | 0.0476 | – | – | –
S171Q | 0.0653 | 0.0747 | 0.079 | 0.0732 | 0.0517 | 0.0605 | – | 0.0806 | 0.0574 | – | – | 0.0794 | – | – | – | – | 0.0703 | –
F173Y | 0.0627 | 0.056 | – | – | – | 0.046 | 0.0532 | 0.0546 | 0.0731 | – | 0.07 | 0.0641 | 0.0588 | – | 0.0571 | 0.0555 | – | 0.0762
N175I | 0.0659 | 0.0723 | – | 0.0731 | 0.0632 | – | 0.0492 | – | – | 0.067 | – | 0.0602 | 0.0706 | 0.0637 | 0.0622 | – | 0.0692 | –
N178E | 0.0708 | – | – | – | 0.0604 | – | – | – | – | – | – | – | 0.0661 | 0.0627 | – | – | – | –
N178G | 0.0711 | – | 0.0624 | – | – | 0.053 | 0.0513 | 0.0524 | 0.0623 | 0.043 | – | – | – | 0.0609 | – | – | 0.0634 | –
N186G | 0.0721 | 0.065 | – | – | – | – | 0.0474 | – | – | 0.0515 | – | – | – | – | – | – | – | –
Q198M | 0.0629 | – | 0.0627 | 0.0942 | – | 0.0589 | 0.0596 | 0.0517 | 0.0577 | 0.0508 | 0.0533 | 0.0911 | 0.067 | 0.051 | – | – | 0.0812 | –
W203M | 0.0507 | – | 0.0561 | 0.0651 | – | – | 0.0443 | 0.0564 | 0.0456 | – | 0.074 | – | 0.0484 | 0.059 | 0.0524 | 0.0688 | 0.0617 | –

Variant | area with substrate ENCYFQS | area with substrate ENFYFQS | area with substrate ENHYFQS | area with substrate ENIYFQS | area with substrate ENKYFQS | area with substrate ENPYFQS | area with substrate ENQYFQS | area with substrate ENSYFQS | area with substrate ENTYFQS | area with substrate ENDYFQS | area with substrate ENEYFQS | area with substrate ENMYFQS | area with substrate ENNYFQS | area with substrate ENRYFQS | area with substrate ENVYFQS | area with substrate ENYYFQS | area with substrate ENGYFQS | area with substrate ENWYFQS
A207H | 0.0592 | – | 0.0638 | – | – | – | 0.0603 | – | 0.0703 | – | 0.058 | – | – | 0.0364 | – | – | – | –
L211R | 0.073 | 0.0561 | – | – | – | 0.0668 | – | 0.0564 | – | 0.0478 | – | – | – | 0.089 | – | – | – | 0.064
L211Y | 0.0641 | – | 0.0598 | 0.118 | 0.0694 | – | 0.0605 | 0.0632 | 0.0604 | 0.0591 | 0.0784 | – | 0.0592 | – | 0.0872 | – | 0.0865 | –
V217I | 0.0743 | – | 0.0358 | – | 0.041 | 0.0548 | 0.0597 | 0.0506 | – | 0.0574 | 0.0663 | 0.0729 | 0.0734 | – | 0.084 | – | 0.0544 | –
F218W | 0.0711 | – | – | – | – | 0.0729 | 0.0646 | 0.0574 | – | 0.0609 | 0.063 | 0.0572 | – | 0.059 | – | 0.0587 | 0.044 | –
K221G | 0.0614 | 0.0619 | – | – | 0.04 | 0.0558 | 0.0455 | 0.118 | 0.0717 | – | 0.0645 | 0.0727 | – | – | – | 0.0608 | 0.0645 | –
P225Q | 0.0659 | – | – | 0.0985 | – | – | – | – | 0.0637 | – | 0.0598 | – | 0.0659 | 0.0443 | 0.0816 | – | 0.0657 | –
P228G | 0.0566 | – | 0.0856 | – | – | – | 0.0658 | 0.0693 | 0.0872 | 0.0643 | 0.0635 | – | 0.08 | – | 0.0869 | – | – | –
V229T | 0.0548 | – | – | 0.102 | – | – | 0.0658 | 0.0633 | 0.0579 | 0.0634 | – | – | – | – | – | – | – | 0.0411
K230H | 0.069 | 0.0617 | 0.0546 | – | 0.0501 | 0.0594 | 0.0645 | 0.0623 | 0.0431 | 0.0582 | 0.0619 | 0.0918 | 0.0682 | 0.0605 | – | – | 0.0591 | –
Q234A | 0.0653 | – | 0.0461 | – | – | – | 0.0555 | 0.0675 | 0.0725 | 0.0587 | 0.0659 | – | – | 0.0576 | 0.0756 | – | 0.0688 | 0.0571
P9I | – | 0.0478 | 0.0271 | – | – | – | 0.0508 | 0.0591 | 0.0843 | 0.0436 | 0.0749 | 0.123 | – | 0.056 | – | 0.0597 | 0.0552 | –
S18H | – | 0.0624 | – | – | – | 0.0497 | – | 0.062 | 0.0486 | 0.0763 | 0.0673 | – | 0.0598 | 0.0634 | 0.0782 | – | – | 0.0518
R50I | – | 0.0787 | – | – | – | – | 0.0511 | 0.0606 | – | 0.0776 | – | 0.072 | – | – | 0.0772 | – | 0.0562 | –
H62L | – | 0.0547 | 0.0485 | – | – | 0.0778 | – | 0.0702 | 0.0725 | 0.0489 | – | 0.0639 | 0.058 | 0.0595 | 0.0645 | – | – | –
K68P | – | 0.0557 | 0.0593 | 0.129 | – | – | 0.0522 | 0.0466 | – | 0.0591 | 0.0648 | – | 0.0667 | 0.0587 | 0.0823 | 0.0547 | – | –
L73N | – | – | 0.0718 | 0.0463 | 0.039 | – | 0.0598 | – | 0.0556 | 0.0552 | 0.0479 | 0.0495 | 0.0502 | 0.0467 | – | 0.0622 | – | –
